# From the supplement of paper PMC8728848
# Some of the results follow.
# Tests used:
# Assay in all cases: glycan array binding signal (z-score within array); higher = stronger binding
# Conditions in all cases: glycan notation: IUPAC condensed, linker removed
# [1] = biological target: Gal(b1-4)GlcNAc(b1-3)Gal(b1-4)GlcNAc(b1-3)Gal(b1-4)GlcNAc(b1-3)Gal(b1-4)GlcNAc(b1-2)Man(a1-3)[Gal(b1-4)GlcNAc(b1-3)Gal(b1-4)GlcNAc(b1-3)Gal(b1-4)GlcNAc(b1-3)Gal(b1-4)GlcNAc(b1-2)Man(a1-6)]Man(b1-4)GlcNAc(b1-4)[Fuc(a1-6)]GlcNAc
# Outline: (§1)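 Arrays were curated from the Consortium for Functional Glycomics database, 3228 in total, and kept only where the protein sequence was available. Binding is expressed as a within-array Z-score. This score was averaged across arrays of the same protein sequence at different concentrations or buffers and across linkers, and negative values can be read as non-binding.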
# [2] = biological target: Gal(b1-4)GlcNAc(b1-3)Gal(b1-4)GlcNAc(b1-3)Gal(b1-4)GlcNAc(b1-3)Gal(b1-4)GlcNAc(b1-2)[Gal(b1-4)GlcNAc(b1-3)Gal(b1-4)GlcNAc(b1-3)Gal(b1-4)GlcNAc(b1-3)Gal(b1-4)GlcNAc(b1-6)]Man(a1-6)[Gal(b1-4)GlcNAc(b1-3)Gal(b1-4)GlcNAc(b1-3)Gal(b1-4)GlcNAc(b1-3)Gal(b1-4)GlcNAc(b1-2)Man(a1-3)]Man(b1-4)GlcNAc(b1-4)[Fuc(a1-6)]GlcNAc
# Outline: as §1
# [3] = biological target: Gal(b1-4)GlcNAc(b1-3)Gal(b1-4)GlcNAc(b1-3)Gal(b1-4)GlcNAc(b1-3)Gal(b1-4)GlcNAc(b1-3)Gal(b1-4)GlcNAc(b1-2)Man(a1-3)[Gal(b1-4)GlcNAc(b1-3)Gal(b1-4)GlcNAc(b1-3)Gal(b1-4)GlcNAc(b1-3)Gal(b1-4)GlcNAc(b1-3)Gal(b1-4)GlcNAc(b1-2)Man(a1-6)]Man(b1-4)GlcNAc(b1-4)GlcNAc
# Outline: as §1
# [4] = biological target: Gal(b1-4)GlcNAc(b1-3)Gal(b1-4)GlcNAc(b1-3)Gal(b1-4)GlcNAc(b1-3)Gal(b1-4)GlcNAc(b1-3)Gal(b1-4)GlcNAc(b1-2)Man(a1-3)[Gal(b1-4)GlcNAc(b1-3)Gal(b1-4)GlcNAc(b1-3)Gal(b1-4)GlcNAc(b1-3)Gal(b1-4)GlcNAc(b1-3)Gal(b1-4)GlcNAc(b1-2)Man(a1-6)]Man(b1-4)GlcNAc(b1-4)[Fuc(a1-6)]GlcNAc
# Outline: as §1
# [5] = biological target: Gal(b1-4)GlcNAc(b1-3)Gal(b1-4)GlcNAc(b1-3)Gal(b1-4)GlcNAc(b1-3)Gal(b1-4)GlcNAc(b1-3)Gal(b1-4)GlcNAc(b1-2)[Gal(b1-4)GlcNAc(b1-3)Gal(b1-4)GlcNAc(b1-3)Gal(b1-4)GlcNAc(b1-3)Gal(b1-4)GlcNAc(b1-3)Gal(b1-4)GlcNAc(b1-6)]Man(a1-6)[Gal(b1-4)GlcNAc(b1-3)Gal(b1-4)GlcNAc(b1-3)Gal(b1-4)GlcNAc(b1-3)Gal(b1-4)GlcNAc(b1-3)Gal(b1-4)GlcNAc(b1-2)Man(a1-3)]Man(b1-4)GlcNAc(b1-4)[Fuc(a1-6)]GlcNAc
# Outline: as §1
# [6] = biological target: Gal(b1-4)GlcNAc(b1-3)Gal(b1-4)GlcNAc(b1-3)Gal(b1-4)GlcNAc(b1-3)Gal(b1-4)GlcNAc(b1-3)Gal(b1-4)GlcNAc(b1-3)Gal(b1-4)GlcNAc(b1-2)Man(a1-3)[Gal(b1-4)GlcNAc(b1-3)Gal(b1-4)GlcNAc(b1-3)Gal(b1-4)GlcNAc(b1-3)Gal(b1-4)GlcNAc(b1-3)Gal(b1-4)GlcNAc(b1-3)Gal(b1-4)GlcNAc(b1-2)Man(a1-6)]Man(b1-4)GlcNAc(b1-4)GlcNAc
# Outline: as §1
# [7] = biological target: Gal(b1-4)GlcNAc(b1-3)Gal(b1-4)GlcNAc(b1-3)GalNAc
# Outline: as §1
# [8] = biological target: Gal(b1-4)GlcNAc(b1-3)Gal(b1-4)GlcNAc(b1-3)[Gal(b1-4)GlcNAc(b1-3)Gal(b1-4)GlcNAc(b1-6)]GalNAc
# Outline: as §1
# [9] = biological target: Gal(b1-4)GlcNAc(b1-3)Gal(b1-4)GlcNAc(b1-6)[Gal(b1-3)]GalNAc
# Outline: as §1
# [10] = biological target: Gal(b1-4)GlcNAc(b1-3)Gal(b1-4)[Fuc(a1-3)]GlcNAc(b1-3)Gal(b1-4)[Fuc(a1-3)]GlcNAc
# Outline: as §1
# [11] = biological target: Gal(b1-4)GlcNAc(b1-3)GalNAc
# Outline: as §1
# [12] = biological target: Gal(b1-4)GlcNAc(b1-3)[Fuc(a1-3)GlcNAc(b1-6)]Gal(b1-4)Glc
# Outline: as §1
# [13] = biological target: Gal(b1-4)GlcNAc(b1-3)[Gal(b1-4)GlcNAc(b1-6)]Gal(b1-4)GlcNAc
# Outline: as §1
# [14] = biological target: Gal(b1-4)GlcNAc(b1-3)[GlcNAc(b1-6)]Gal(b1-4)GlcNAc
# Outline: as §1
# [15] = biological target: Gal(b1-4)GlcNAc(b1-6)Gal(b1-4)GlcNAc
# Outline: as §1
# [16] = biological target: Gal(b1-4)GlcNAc(b1-6)GalNAc
# Outline: as §1
# [17] = biological target: Gal(b1-4)GlcNAc(b1-6)[Gal(b1-3)]GalNAc
# Outline: as §1
# [18] = biological target: Gal(b1-4)GlcNAc(b1-6)[Gal(b1-4)GlcNAc(b1-3)]GalNAc
# Outline: as §1
# [19] = biological target: Gal(b1-4)GlcNAc6P
# Outline: as §1
# [20] = biological target: Gal(b1-6)Gal
# Outline: as §1
# [21] = biological target: Gal3S(b1-3)GalNAc
# Outline: as §1
# [22] = biological target: Gal3S(b1-3)GlcNAc
# Outline: as §1
# [23] = biological target: Gal3S(b1-3)[Fuc(a1-4)]GlcNAc
# Outline: as §1
binder,measurement,setting,value
"CLECb-Precomplexed (Mus musculus), P43025 (protein) MAKNGLVLCILVVSLLLDQTDGYPSRMKARKHSKRRVKAKDDDLKSQVEKLWREVNALKEMQALQTVCLRGTKVHKKCYLASEGLKHYHEANEDCISKGGTLVVPRNSDEINALRDYGKRSLPGVNDFWLGINDMVTEGKFLDVHGFAVSFLNWDRAQPSGGKRENCVLFSQSAQGKWSDEACRSSKRYICEFIIPTRTRPLEQKLISEEDLAANDILDYKDDDDKV",glycan array binding signal (z-score),[1],1.82
same,glycan array binding signal (z-score),[2],1.42
same,glycan array binding signal (z-score),[3],2.1
same,glycan array binding signal (z-score),[4],1.04
same,glycan array binding signal (z-score),[5],11.2
same,glycan array binding signal (z-score),[6],0.92
same,glycan array binding signal (z-score),[7],-0.369
same,glycan array binding signal (z-score),[8],-0.18
same,glycan array binding signal (z-score),[9],0.229
same,glycan array binding signal (z-score),[10],0.033
same,glycan array binding signal (z-score),[11],0.155
same,glycan array binding signal (z-score),[12],-0.148
same,glycan array binding signal (z-score),[13],0.403
same,glycan array binding signal (z-score),[14],0.459
same,glycan array binding signal (z-score),[15],-0.347
same,glycan array binding signal (z-score),[16],-0.104
same,glycan array binding signal (z-score),[17],-0.191
same,glycan array binding signal (z-score),[18],0.15
same,glycan array binding signal (z-score),[19],-0.177
same,glycan array binding signal (z-score),[20],-0.508
same,glycan array binding signal (z-score),[21],-0.161
same,glycan array binding signal (z-score),[22],-0.268
same,glycan array binding signal (z-score),[23],-0.305
